Source: the RNAGym collection of RNA variant scans (doi:10.1093/nar/gkz1192)
The source gives no read counts; variants with many changes may rest on few reads.

B1: CPEB3 Ribozyme (parent)
chain: UAACAGGGGGCCACAGCAGAAGCGUUCACGUCGCAGCCCCUGUCAGAUUCUGGUGAAUCUGCGAAUUCUGCUGUAUAUCUC

Variants of: B1
Experiment: self-cleavage, relative activity (ratio to wild type); higher = more cleavage; in vitro, sequencing
Outline: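 Barcoded CPEB3 ribozyme mutants, produced by rounds of error-prone PCR, self-cleaved while being transcribed with T7 RNA polymerase for 5 hours at 37°C and during a subsequent 15 min DNase I step before EDTA was added. Sequencing of template-switched cDNA on Illumina gave cleaved and total reads, and DNA sequencing assigned barcodes to variants. Each variant's relative activity is its cleaved/total read fraction divided by the unmutated ribozyme's fraction, averaged across three batches. A variant needed a minimum of 5 reads.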

Variant | self-cleavage
U25C G63U C68U U72A | 0.19
U25C C39A U60C | 0.2
U25C U26A A56G | 0.07
U25C U54C U66C | 0.27
U25C C38U A64G | 0.25
U25C U43A U51G A56G | 0.06
U25C U54G A75U | 0.07
U25C C32A C38U U69C | 0.06
U25C U51C U54C | 0.29
U25C U58A U78C | 0.32
U25C G33A A35G | 0.15
U25C U41A U54A | 0.21
U25C C40U U67G U76C A77G | 0.28
U25C U51A U67C A75U | 0.07
U25C C29U C32U A75C | 0.06
U25C U66C U74A | 0.09
U25C C32U U51C | 0.7
U25C A56U G70C | 0.09
U25C G52A U54C U60G U67A | 0.11
U25C U31A A47G U69C | 0.06
U25C C27U U60C | 0.23
U25C U26C A56G U78C | 0.07
U25C U26G C44U | 0.59
U25C U49C U51A U54C G55A U78A | 0.07

Variant | self-cleavage
U25C U31C U49C | 0.35
U25C C27A U41A U51A A64U U80C | 0.64
U25C U49A G52A U74C | 0.57
U25C U51A U74C | 0.33
U25C U31C A56U A77U U80C | 0.12
U25C U51A A64G U69C | 0.1
U25C G36A U54C A56G U60A | 0.11
U25C U48A U58G U60A | 0.37
U25C U26A A35G A56G | 0.16
U25C A56G U58A | 0.18
U25C U31A C71A | 0.08
U25C A56G U67C | 0.08
U25C U41C A45G A56U A64G | 0.33
U25C U31A U80C | 0.3
U25C U41C A57G A75U | 0.44
U25C U26C U48C C62A U80A | 0.24
U25C G70A U72C | 0.1
U25C A47G U76C | 0.26
U25C U43A U49A U66C | 0.12
U25C G42A A57G U72C | 0.34
U25C U51C U80A | 0.25
U25C A45U U54C U78C | 0.4
U25C U31G A64U | 0.42
U25C G30A A45U G46A A75G | 0.13

Variant | self-cleavage
U25C U54A A56U | 0.4
U25C U60A C71U C79U U80A | 0.04
U25C U43A U51G | 0.28
U25C U49C C81U | 0.06
U25C U51A U72A | 0.33
U25C U26A A35U A64U U67A U69C | 0.09
U25C G33A U78C | 0.38
U25C A65U U67A | 0.11
U25C U31A A45G | 0.29
U25C A57C A65G U66G U76A U80C | 0.08
U25C U49A U66C U69C A77G U80G | 0.14
U25C C34A U41A A57G | 0.21
U25C G33A A35U G63A | 0.15
U25C U26C A35C A45U | 0.1
U25C U26C U41A U78C | 0.07
U25C U60C U66C U72C U78C | 0.13
U25C U26C C39A | 0.07
U25C U60C A77G | 0.16
U25C U51C U60A A65G | 0.09
U25C U43C U54A U66C | 0.05
U25C U49C U60G | 0.06
U25C U49C U60C | 0.25
U25C G61A C62U | 0.07
U25C U43C A64G U69A | 0.17

Variant | self-cleavage
U25C U60A A64U | 0.13
U25C U66C U69C U80G | 0.05
U25C U51G A65G U80C | 0.08
U25C U54C U80C | 0.36
U25C U54A A77C | 0.28
U25C C29G U66A U76C | 0.2
U25C U31C C44U U66C | 0.14
U25C U51G U60A A75G | 0.17
U25C A47G A57U | 0.11
U25C A47G U80C | 0.32
U25C C34A A47G C79A | 0.23
U25C A56U U76C | 0.43
U25C C34A A56G | 0.24
U25C U41C C79U | 0.09
U25C U43A U48C U49C U67A | 0.1
U25C G36A U51A U69C U80C | 0.06
U25C U31C G61U U76C | 0.14
U25C U26A A28C U51C | 0.36
U25C U51A U67A U69A | 0.37
U25C U54G A56U U78C | 0.06
U25C U43C A56G G70A U78C | 0.17
U25C U48A A56G | 0.2
U25C U48C U51G U67C U78C | 0.12
U25C U54A U67G U72A | 0.27

Variant | self-cleavage
U25C G52U U80C | 0.37
U25C U31C A56G U69C | 0.15
U25C U51G C59U C68G U69C | 0.15
U25C U26C U51A U72A | 0.38
U25C C32U A65G U80C | 0.11
U25C U26C U48A A57G U69A U80C | 0.17
U25C U26C A77U | 0.4
U25C C32U U48C A56U A75C | 0.07
U25C C38U U41C U51A | 0.21
U25C A47G U60A | 0.15
U25C A47G U60C | 0.19
U25C U51C U54G A57U C62A | 0.16
U25C U48C U58C U67C | 0.08
U25C U26C C62U | 0.08
U25C G53A U54A | 0.37
U25C U31A A57G U69C | 0.07
U25C C29U U72C | 0.13
U25C A57G U72A | 0.13
U25C C27U U41G A47G U72A | 0.05
U25C U26C A56U U58C U72A U76C U80C | 0.08
U25C U48A U49G U76C | 0.43
U25C A57G U76C U80C | 0.23
U25C C29A U54C U60C U78C | 0.27
U25C U43A U49C | 0.15

Variant | self-cleavage
U25C U31G U43C U54A A64G U66C | 0.11
U25C U60A U72C | 0.47
U25C G33A G63U C79U | 0
U25C U43A U78C | 0.16
U25C U26G A56G | 0.15
U25C U66C A77U | 0.21
U25C U41A U49C A56G | 0.29
U25C G36U U69A | 0.14
U25C G33A C37G U54G C59G | 0.17
U25C C27G A45G U51C U67A | 0
U25C U54C A77G U80C | 0.15
U25C U31A A35U U43C G52A C79A | 0.07
U25C U26C U43C A64G | 0.36
U25C U26C A35U U72C | 0.07
U25C G61C U66C U74A U80A | 0.18
U25C U31A U43C U67A | 0.23
U25C U26C U31C U41C | 0.07
U25C C37A U60A C71U U72C | 0.04
U25C U26C A65G U69C U76C | 0.1
U25C C37U U78C | 0.21
U25C A47U U51A U72A | 0.16
U25C U41A U51A U80A | 0.06
U25C C27U U51C | 0.35
U25C U51A U60C | 0.2

Variant | self-cleavage
U25C U26C A45G A56G | 0.1
U25C U41A A64G U67A U69C U76C | 0.13
U25C U31C A65G | 0.16
U25C C62G A65G | 0.42
U25C C34U A77U | 0.09
U25C G36A C62U U67G | 0.06
U25C A45U U48C C50U U67A | 0.04
U25C G30U U41A U43C A45U A75G A77U | 0.1
U25C A47G A56G | 0.52
U25C U41A U58C | 0.24
U25C U51C U60A A64G U69C | 0.06
U25C U43G C71U | 0.14
U25C U26C A35G | 0.24
U25C C39U C40U U69C A77G | 0.12
U25C C27A A35G U60C U80G | 0.05
U25C U54C A56U | 0.22
U25C C29U G73A | 0.28
U25C A64G A65G | 0.47
U25C U54C A77U | 0.21
U25C U54A U80A | 0.3
U25C G33U U49C G63A | 0.15
U25C A45U U60G A64G | 0.08
U25C U43C U58G | 0.14
